# Laboratory results reported in the supplement of paper PMC8728848.
# This is one part of the list.
# Legend:
# Test in all cases: glycan array binding signal (z-score within array); higher = stronger binding
# Conditions in all cases: glycan notation: IUPAC condensed, linker removed
# [1] = molecular target: Gal6S(b1-4)Glc6S
# Procedure, shortened: (§1)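 Glycan array binding is given as a within-array Z-score, which can be read as non-binding when negative. The arrays, 3228 of them, came from the Consortium for Functional Glycomics database and were retained only where the protein sequence was available. Z-scores were averaged across arrays of the same protein sequence at different concentrations or buffers and across linkers.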
# [2] = molecular target: Gal6S(b1-4)GlcNAc
# Procedure, shortened: as §1
# [3] = molecular target: Gal6S(b1-4)GlcNAc6S
# Procedure, shortened: as §1
# [4] = molecular target: GalNAc(a1-3)Gal
# Procedure, shortened: as §1
# [5] = molecular target: GalNAc(a1-3)GalNAc
# Procedure, shortened: as §1
# [6] = molecular target: GalNAc(a1-3)GalNAc(a1-3)Gal(a1-4)Gal(b1-4)GlcNAc
# Procedure, shortened: as §1
# [7] = molecular target: GalNAc(a1-3)GalNAc(b1-3)Gal(a1-4)Gal(b1-4)Glc
# Procedure, shortened: as §1
# [8] = molecular target: GalNAc(b1-3)Gal
# Procedure, shortened: as §1
# [9] = molecular target: GalNAc(b1-3)Gal(a1-4)Gal(b1-4)GlcNAc
# Procedure, shortened: as §1
# [10] = molecular target: GalNAc(b1-3)Gal(a1-4)Gal(b1-4)GlcNAc(b1-3)Gal(b1-4)Glc
# Procedure, shortened: as §1
# [11] = molecular target: GalNAc(b1-3)Gal(a1-6)Gal(b1-4)Glc
# Procedure, shortened: as §1
# [12] = molecular target: GalNAc(b1-3)GalNAc
# Procedure, shortened: as §1
# [13] = molecular target: GalNAc(b1-3)GlcNAc
# Procedure, shortened: as §1
# [14] = molecular target: GalNAc(b1-4)Gal(b1-4)Glc
# Procedure, shortened: as §1
# [15] = molecular target: GalNAc(b1-4)GlcNAc
# Procedure, shortened: as §1
# [16] = molecular target: GalNAc(b1-4)GlcNAc(b1-2)Man
# Procedure, shortened: as §1
# [17] = molecular target: GalNAc(b1-4)GlcNAc(b1-2)Man(a1-3)[GalNAc(b1-4)GlcNAc(b1-2)Man(a1-6)]Man(b1-4)GlcNAc(b1-4)GlcNAc
# Procedure, shortened: as §1
# [18] = molecular target: GalNAc(b1-4)GlcNAc(b1-3)GalNAc(b1-4)GlcNAc
# Procedure, shortened: as §1
# [19] = molecular target: GalNAc(b1-4)GlcNAc6S
# Procedure, shortened: as §1
# [20] = molecular target: GalNAc(b1-6)GalNAc
# Procedure, shortened: as §1
# [21] = molecular target: GalNAc3S(b1-4)GlcNAc
# Procedure, shortened: as §1
# [22] = molecular target: GalNAc3S(b1-4)GlcNAc3S
# Procedure, shortened: as §1
# [23] = molecular target: GalNAc3S(b1-4)[Fuc(a1-3)]GlcNAc
# Procedure, shortened: as §1
# [24] = molecular target: GalNAc4S6S(b1-4)GlcNAc
# Procedure, shortened: as §1
# [25] = molecular target: GalNAc6S(b1-4)GlcNAc
# Procedure, shortened: as §1
# [26] = molecular target: Glc(a1-4)Glc
# Procedure, shortened: as §1
# [27] = molecular target: Glc(a1-4)Glc(a1-4)Glc(a1-4)Glc
# Procedure, shortened: as §1
# [28] = molecular target: Glc(a1-6)Glc(a1-6)Glc
# Procedure, shortened: as §1
# [29] = molecular target: Glc(a1-6)Glc(a1-6)Glc(a1-6)Glc
# Procedure, shortened: as §1
# [30] = molecular target: Glc(b1-4)Glc
# Procedure, shortened: as §1
# [31] = molecular target: Glc(b1-6)Glc
# Procedure, shortened: as §1
# [32] = molecular target: GlcA(b1-3)Gal
# Procedure, shortened: as §1
# [33] = molecular target: GlcA(b1-3)GlcNAc
# Procedure, shortened: as §1
# [34] = molecular target: GlcA(b1-6)Gal
# Procedure, shortened: as §1
# [35] = molecular target: GlcA3S(b1-3)Gal(b1-4)GlcNAc(b1-2)Man
# Procedure, shortened: as §1
# [36] = molecular target: GlcA3S(b1-3)Gal(b1-4)GlcNAc(b1-3)Gal(b1-4)Glc
# Procedure, shortened: as §1
# [37] = molecular target: GlcNAc(a1-3)Gal(b1-4)GlcNAc
# Procedure, shortened: as §1
# [38] = molecular target: GlcNAc(a1-4)Gal(b1-3)GlcNAc
# Procedure, shortened: as §1
# [39] = molecular target: GlcNAc(a1-4)Gal(b1-4)GalNAc
# Procedure, shortened: as §1
# [40] = molecular target: GlcNAc(a1-4)Gal(b1-4)GlcNAc
# Procedure, shortened: as §1
# [41] = molecular target: GlcNAc(a1-4)Gal(b1-4)GlcNAc(b1-3)Gal(b1-4)Glc
# Procedure, shortened: as §1
# [42] = molecular target: GlcNAc(a1-4)Gal(b1-4)GlcNAc(b1-3)Gal(b1-4)GlcNAc
# Procedure, shortened: as §1
# [43] = molecular target: GlcNAc(a1-4)Gal(b1-4)GlcNAc(b1-3)Gal(b1-4)GlcNAc(b1-3)Gal(b1-4)GlcNAc
# Procedure, shortened: as §1
# [44] = molecular target: GlcNAc(a1-4)Gal(b1-4)GlcNAc(b1-3)Gal(b1-4)[Fuc(a1-3)]GlcNAc(b1-3)Gal(b1-4)[Fuc(a1-3)]GlcNAc
# Procedure, shortened: as §1
# [45] = molecular target: GlcNAc(a1-6)Gal(b1-4)GlcNAc
# Procedure, shortened: as §1
binder,measurement,setting,value
"Langerin K313I (Homo sapiens), Q9UJ71 (protein) STLNAQIPELKSDLEKASALNTKIRALQGSLENMSKLLKRQNDILQVVSQGWKYFKGNFYYFSLIPKTWYSAEQFCVSRNSHLTSVTSESEQEFLYKTAGGLIYWIGLTKAGMEGDWSWVDDTPFNKVQSARFWIPGEPNNAGNNEHCGNIKAPSLQAWNDAPCDITFLFICKRPYVPSEP",glycan array binding signal (z-score),[1],-0.292
same,glycan array binding signal (z-score),[2],-0.376
same,glycan array binding signal (z-score),[3],-0.368
same,glycan array binding signal (z-score),[4],-0.338
same,glycan array binding signal (z-score),[5],-0.399
same,glycan array binding signal (z-score),[6],-0.387
same,glycan array binding signal (z-score),[7],-0.396
same,glycan array binding signal (z-score),[8],-0.374
same,glycan array binding signal (z-score),[9],-0.29
same,glycan array binding signal (z-score),[10],-0.34
same,glycan array binding signal (z-score),[11],-0.302
same,glycan array binding signal (z-score),[12],3.83
same,glycan array binding signal (z-score),[13],-0.336
same,glycan array binding signal (z-score),[14],-0.117
same,glycan array binding signal (z-score),[15],-0.336
same,glycan array binding signal (z-score),[16],-0.387
same,glycan array binding signal (z-score),[17],-0.179
same,glycan array binding signal (z-score),[18],-0.373
same,glycan array binding signal (z-score),[19],-0.383
same,glycan array binding signal (z-score),[20],-0.384
same,glycan array binding signal (z-score),[21],-0.382
same,glycan array binding signal (z-score),[22],-0.348
same,glycan array binding signal (z-score),[23],0.038
same,glycan array binding signal (z-score),[24],-0.408
same,glycan array binding signal (z-score),[25],-0.405
same,glycan array binding signal (z-score),[26],-0.263
same,glycan array binding signal (z-score),[27],-0.025
same,glycan array binding signal (z-score),[28],-0.215
same,glycan array binding signal (z-score),[29],0.03
same,glycan array binding signal (z-score),[30],-0.131
same,glycan array binding signal (z-score),[31],-0.119
same,glycan array binding signal (z-score),[32],-0.358
same,glycan array binding signal (z-score),[33],-0.334
same,glycan array binding signal (z-score),[34],-0.191
same,glycan array binding signal (z-score),[35],-0.331
same,glycan array binding signal (z-score),[36],-0.268
same,glycan array binding signal (z-score),[37],-0.393
same,glycan array binding signal (z-score),[38],-0.33
same,glycan array binding signal (z-score),[39],-0.074
same,glycan array binding signal (z-score),[40],-0.289
same,glycan array binding signal (z-score),[41],-0.289
same,glycan array binding signal (z-score),[42],-0.281
same,glycan array binding signal (z-score),[43],-0.291
same,glycan array binding signal (z-score),[44],0.379
same,glycan array binding signal (z-score),[45],-0.352
